In PMC4336329 (PLoS ONE, 2015):
Out of some 310,000 compounds screened, about 14,000 (4.5%) showed an effect of 50% or more. Effects have a minus sign here. This is one part of the list.

Target: human ether-à-go-go-related gene (hERG) potassium channel (human, UniProt Q12809)
Assay: primary screen, population patch clamp on CHO cells stably expressing hERG
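Also: peak tail current of the secondary pulse compared with the same well before compound.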

Chain of human ether-à-go-go-related gene (hERG) potassium channel (Q12809 whole entry, looked up): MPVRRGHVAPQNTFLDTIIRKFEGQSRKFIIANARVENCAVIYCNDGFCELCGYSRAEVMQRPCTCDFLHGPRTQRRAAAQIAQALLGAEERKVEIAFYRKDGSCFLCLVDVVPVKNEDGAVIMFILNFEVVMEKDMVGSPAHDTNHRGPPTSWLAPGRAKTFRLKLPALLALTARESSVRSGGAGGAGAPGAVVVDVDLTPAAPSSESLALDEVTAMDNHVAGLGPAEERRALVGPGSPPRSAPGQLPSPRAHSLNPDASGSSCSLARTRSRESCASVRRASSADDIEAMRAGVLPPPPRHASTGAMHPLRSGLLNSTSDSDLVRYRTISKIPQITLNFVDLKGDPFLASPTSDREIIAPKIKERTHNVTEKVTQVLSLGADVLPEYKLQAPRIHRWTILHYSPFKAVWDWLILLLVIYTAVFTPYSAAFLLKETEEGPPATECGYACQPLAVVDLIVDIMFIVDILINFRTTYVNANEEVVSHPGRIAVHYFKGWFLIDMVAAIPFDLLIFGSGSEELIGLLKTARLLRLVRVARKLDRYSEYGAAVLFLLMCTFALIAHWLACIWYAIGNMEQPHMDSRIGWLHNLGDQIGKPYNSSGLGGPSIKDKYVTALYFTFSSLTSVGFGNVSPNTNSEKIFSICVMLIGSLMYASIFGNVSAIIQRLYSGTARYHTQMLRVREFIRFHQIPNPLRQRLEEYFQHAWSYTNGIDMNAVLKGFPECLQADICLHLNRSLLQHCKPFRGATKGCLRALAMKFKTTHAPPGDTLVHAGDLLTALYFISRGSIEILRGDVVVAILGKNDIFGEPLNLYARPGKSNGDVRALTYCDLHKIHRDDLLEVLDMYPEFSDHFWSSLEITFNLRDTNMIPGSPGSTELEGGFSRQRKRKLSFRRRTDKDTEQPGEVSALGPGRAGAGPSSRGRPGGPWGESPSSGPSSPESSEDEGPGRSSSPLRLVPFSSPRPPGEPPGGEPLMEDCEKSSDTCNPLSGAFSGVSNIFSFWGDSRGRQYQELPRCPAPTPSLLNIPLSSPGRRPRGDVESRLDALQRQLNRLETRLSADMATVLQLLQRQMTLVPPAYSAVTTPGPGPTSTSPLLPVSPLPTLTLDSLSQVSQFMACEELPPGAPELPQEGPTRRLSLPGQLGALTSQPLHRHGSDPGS

Row | SMILES | hERG current change (%, negative = inhibition) at 10uM
1 | COC(=O)C(Cc1ccccc1)NC(=O)CNC(=O)c1ccc(Br)cc1 (stereo not shown) | -29.1%
2 | CCOc1ccccc1C1NC(=O)c2ccccc2O1 (stereo not shown) | -1.13%
3 | CC(=O)Nc1cc2c(ccc3ccccc32)oc1=O | 17.2%
4 | COc1ccc(C2CC(c3ccccc3)=NN2C(=O)COC(=O)c2cccnc2Cl)cc1 (stereo not shown) | 5.03%
5 | O=C(NCCc1c[nH]c2ccccc12)c1cnccn1 | 6.99%
6 | COC(=O)c1sc(NC(=O)CSc2nnnn2-c2cccc(OC)c2)nc1C | 9.4%
7 | CS(=O)(=O)CCC(C(=O)O)N1C(=O)c2ccc(Oc3ccc(Cl)cc3)cc2C1=O (stereo not shown) | 5.78%
8 | CN1C=CC=C/C1=C1\SC(=S)N(Cc2ccccc2)C1=O | -14.8%
9 | CCOC(=O)C1CCN(CCC(=O)Nc2ccc(Br)cc2)CC1 | -63.5%
10 | Cc1csc(NC(=O)c2ccco2)n1 | 2.89%
11 | O=C(/C=C/c1ccc(F)cc1)NNC(=O)CCN1CCN(Cc2ccccc2)CC1 | -49.9%
12 | CC1CCN(C(=O)C2CCN(S(=O)(=O)c3cccnc3)CC2)CC1 | 2.17%
13 | CCOC(=O)N/N=C/c1c(C)c(C(=O)c2ccc(F)cc2)n2ccccc12 | 14.6%
14 | Nc1nonc1-n1nnc(C(=O)N/N=C/c2ccoc2)c1CSc1ccccc1 | 8.02%
15 | CC(=O)Oc1ccccc1/C=C/c1nc2ccccc2c(=O)o1 | 11.8%
16 | Cc1onc(-c2c(Cl)cccc2Cl)c1C(=O)NNc1ccccc1 | 5.29%
17 | COc1ccc2ccccc2c1CN1CCSCC1 | 8.1%
18 | O=S1(=O)CCN2C=Nc3sc4c(c3C2=N1)CCCC4 | -1.29%
19 | CN1CCN(C=Nc2nc3ccccc3nc2N2CCCC2)CC1 | -34.1%
20 | CCCn1nnnc1SCC(=O)N1CCOCC1 | 19.2%
21 | Cn1nnnc1SCc1nnc(-c2ccccc2Br)o1 | 2.47%
22 | COC(=O)c1cccc(NC(=O)CCc2ccccc2)c1 | -23.3%
23 | CCCCCCSc1nnc(N)s1 | -5.74%

Row | SMILES | hERG current change (%, negative = inhibition) at 10uM
24 | O=C(Cn1cc(C(=O)C2CC2)c2ccccc21)Nc1ccccc1Cl | 15.1%
25 | CCn1c(SCC#N)nc2cc(S(=O)(=O)N3CCOCC3)ccc21 | 11.2%
26 | CCOC(=O)c1ccc(NC(=O)Cn2c(=O)oc3ccccc32)cc1 | 10.9%
27 | CCOC(=O)c1c(NC(C)=O)sc(/C(C)=N/Nc2ccc(C(=O)O)cc2)c1C | 12.3%
28 | CCc1ccc(CNC(=O)C2CCN(S(=O)(=O)N3CCCC3)CC2)cc1 | -0.739%
29 | Cc1cccc(NC(=S)NC(C)(C)CC(C)(C)C)c1 | 11.9%
30 | COc1ccc(N2CCN(C(=O)CCc3ccc(S(=O)(=O)NC(C)C)cc3)CC2)cc1 | -7.82%
31 | O=C(CSc1nnc(-c2c[nH]c3ccccc23)o1)N1CCCCC1 | 0.267%
32 | O=[N+]([O-])c1ccc(S(=O)(=O)N2CCN(c3ccnc4cc(Cl)ccc34)CC2)cc1 | -73.5%
33 | Cc1ccc(C(=O)Nc2ccccc2SCC2CSc3nc4ccccc4c(=O)n32)cc1 (stereo not shown) | -68.4%
34 | O=C(CCCC(=O)OCC(Cl)=C(Cl)Cl)Nc1ccccc1F | 8.74%
35 | CN(C)Cc1c(C(=O)N/N=C/c2ccc(OCc3c(F)cccc3Cl)cc2)nnn1-c1nonc1N | 15.6%
36 | O=C(Nc1cccc(O)c1)c1ccccc1 | 0.537%
37 | CCOc1ccc(/C=C2\SC(=S)NC2=O)cc1OC | 26.3%
38 | O=C(c1ccc(CS(=O)(=O)c2ccccc2)o1)N1CCC2(CC1)OCCO2 | -8.16%
39 | CCC(=O)NC1=C(C#N)C2(CCCC2)Cc2ccccc21 | -1.89%
40 | CCOc1ccc2[nH]c3c(N4CCc5ccccc5C4)ncnc3c2c1 | 5.49%
41 | Cc1ccc(NC(=O)COC(=O)c2ccc(Br)o2)cc1S(=O)(=O)N1CCCCC1 | 2.27%
42 | CCCCCCCCCCOC(=O)C[N+](C)(C)CC1CCCCC1O.[Cl-] (stereo not shown) | -38.2%
43 | CC1CCCCC1NC(=O)COC(=O)CN1C(=O)c2ccccc2C1=O (stereo not shown) | 1.51%
44 | COc1ccccc1C(=O)N/N=C(\C)c1cccnc1 | -10.8%
45 | CCC(CO)Oc1cc(NC(=O)c2ccc(F)cc2)c2ncn(C(C)C)c2c1 (stereo not shown) | 10.5%
46 | CC1Cc2ccccc2N1C(=O)CSc1nnc(CNc2ccccc2)o1 (stereo not shown) | -12.8%
